This is one part of the list.
Assays:
Test in all cases: glycan array binding signal (z-score within array); higher = stronger binding
Conditions in all cases: glycan notation: IUPAC condensed, linker removed
[1] = molecular target: GlcNAc(a1-4)Gal(b1-4)GalNAc
Procedure, shortened: (§1)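 From the Consortium for Functional Glycomics database, 3228 arrays were curated, keeping only those whose protein sequence was available. Binding is given as a within-array Z-score averaged across arrays sharing a protein sequence and across linkers. Negative Z-scores can be read as non-binding.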

[2] = molecular target: GlcNAc(a1-4)Gal(b1-4)GlcNAc
Procedure, shortened: as §1

[3] = molecular target: GlcNAc(a1-4)Gal(b1-4)GlcNAc(b1-3)Gal(b1-4)Glc
Procedure, shortened: as §1

[4] = molecular target: GlcNAc(a1-4)Gal(b1-4)GlcNAc(b1-3)Gal(b1-4)GlcNAc
Procedure, shortened: as §1

[5] = molecular target: GlcNAc(a1-4)Gal(b1-4)GlcNAc(b1-3)Gal(b1-4)GlcNAc(b1-3)Gal(b1-4)GlcNAc
Procedure, shortened: as §1

[6] = molecular target: GlcNAc(a1-4)Gal(b1-4)GlcNAc(b1-3)Gal(b1-4)[Fuc(a1-3)]GlcNAc(b1-3)Gal(b1-4)[Fuc(a1-3)]GlcNAc
Procedure, shortened: as §1

[7] = molecular target: GlcNAc(a1-6)Gal(b1-4)GlcNAc
Procedure, shortened: as §1

[8] = molecular target: GlcNAc(b1-2)Gal(b1-3)GalNAc
Procedure, shortened: as §1

[9] = molecular target: GlcNAc(b1-2)Man(a1-3)[GlcNAc(b1-2)Man(a1-6)]Man(b1-4)GlcNAc(b1-4)GlcNAc
Procedure, shortened: as §1

[10] = molecular target: GlcNAc(b1-2)Man(a1-3)[GlcNAc(b1-2)Man(a1-6)]Man(b1-4)GlcNAc(b1-4)[Fuc(a1-6)]GlcNAc
Procedure, shortened: as §1

[11] = molecular target: GlcNAc(b1-2)[GlcNAc(b1-4)]Man(a1-3)[GlcNAc(b1-2)Man(a1-6)]Man(b1-4)GlcNAc(b1-4)GlcNAc
Procedure, shortened: as §1

[12] = molecular target: GlcNAc(b1-3)Gal
Procedure, shortened: as §1

[13] = molecular target: GlcNAc(b1-3)Gal(b1-3)GalNAc
Procedure, shortened: as §1

[14] = molecular target: GlcNAc(b1-3)Gal(b1-4)Glc
Procedure, shortened: as §1

[15] = molecular target: GlcNAc(b1-3)Gal(b1-4)GlcNAc
Procedure, shortened: as §1

[16] = molecular target: GlcNAc(b1-3)Gal(b1-4)GlcNAc(b1-3)Gal(b1-4)GlcNAc
Procedure, shortened: as §1

[17] = molecular target: GlcNAc(b1-3)GalNAc
Procedure, shortened: as §1

[18] = molecular target: GlcNAc(b1-3)Man
Procedure, shortened: as §1

[19] = molecular target: GlcNAc(b1-3)[GlcNAc(b1-4)][GlcNAc(b1-6)]GlcNAc
Procedure, shortened: as §1

[20] = molecular target: GlcNAc(b1-3)[GlcNAc(b1-6)]Gal(b1-4)GlcNAc
Procedure, shortened: as §1

[21] = molecular target: GlcNAc(b1-3)[GlcNAc(b1-6)]GalNAc
Procedure, shortened: as §1

[22] = molecular target: GlcNAc(b1-4)Gal(b1-4)GlcNAc
Procedure, shortened: as §1

[23] = molecular target: GlcNAc(b1-4)GlcNAc
Procedure, shortened: as §1

[24] = molecular target: GlcNAc(b1-4)GlcNAc(b1-4)GlcNAc
Procedure, shortened: as §1

[25] = molecular target: GlcNAc(b1-4)GlcNAc(b1-4)GlcNAc(b1-4)GlcNAc(b1-4)GlcNAc
Procedure, shortened: as §1

[26] = molecular target: GlcNAc(b1-4)GlcNAc(b1-4)GlcNAc(b1-4)GlcNAc(b1-4)GlcNAc(b1-4)GlcNAc
Procedure, shortened: as §1

[27] = molecular target: GlcNAc(b1-4)[GlcNAc(b1-6)]GalNAc
Procedure, shortened: as §1

[28] = molecular target: GlcNAc(b1-6)Gal(b1-4)GlcNAc
Procedure, shortened: as §1

[29] = molecular target: GlcNAc(b1-6)GalNAc
Procedure, shortened: as §1

[30] = molecular target: GlcNAc3Prop(b1-4)GlcNAc
Procedure, shortened: as §1

[31] = molecular target: GlcNAc6S(b1-3)Gal(b1-4)GlcNAc
Procedure, shortened: as §1

[32] = molecular target: Kdn(a2-3)Gal(b1-3)GalNAc
Procedure, shortened: as §1

[33] = molecular target: Kdn(a2-3)Gal(b1-3)GlcNAc
Procedure, shortened: as §1

[34] = molecular target: Kdn(a2-3)Gal(b1-4)Glc
Procedure, shortened: as §1

[35] = molecular target: Kdn(a2-3)Gal(b1-4)GlcNAc
Procedure, shortened: as §1

B1: SLP (Clostridium difficile), Q183M8 (protein)
chain: MATTGTQGYTVVKNDWKKAVKQLQDGLKDNSIGKITVSFNDGVVGEVAPKSANKKADRDAAAEKLYNLVNTQLDKLGDGDYVDFSVDYNLENKIITNQADAEAIVTKLNSLNEKTLIDIATKDTFGMVSKTQDSEGKNVAATKALKVKDVATFGLKSGGSEDTGYVVEMKAGAVEDKYGKVGDSTAGIAINLPSTGLEYAGKGTTIDFNKTLKVDVTGGSTPSAVAVSGFVTKDDTDLAKSGTINVRVINAKEESIDIDASSYTSAENLAKRYVFDPDEISEAYKAIVALQNDGIESNLVQLVNGKYQVIFYPEGKRLETKSLEHHHHHH
glycan array binding signal (z-score) [1]: 0.025 | glycan array binding signal (z-score) [2]: -0.187 | glycan array binding signal (z-score) [3]: -0.164 | glycan array binding signal (z-score) [4]: -0.126 | glycan array binding signal (z-score) [5]: -0.18 | glycan array binding signal (z-score) [6]: 0.283 | glycan array binding signal (z-score) [7]: -0.183 | glycan array binding signal (z-score) [8]: -0.072 | glycan array binding signal (z-score) [9]: -0.187 | glycan array binding signal (z-score) [10]: -0.139 | glycan array binding signal (z-score) [11]: -0.186 | glycan array binding signal (z-score) [12]: -0.203 | glycan array binding signal (z-score) [13]: -0.108 | glycan array binding signal (z-score) [14]: -0.201 | glycan array binding signal (z-score) [15]: -0.205 | glycan array binding signal (z-score) [16]: -0.209 | glycan array binding signal (z-score) [17]: -0.138 | glycan array binding signal (z-score) [18]: -0.202 | glycan array binding signal (z-score) [19]: -0.151 | glycan array binding signal (z-score) [20]: -0.195 | glycan array binding signal (z-score) [21]: 0.651 | glycan array binding signal (z-score) [22]: -0.082 | glycan array binding signal (z-score) [23]: -0.18 | glycan array binding signal (z-score) [24]: -0.054 | glycan array binding signal (z-score) [25]: -0.08 | glycan array binding signal (z-score) [26]: -0.119 | glycan array binding signal (z-score) [27]: -0.161 | glycan array binding signal (z-score) [28]: -0.175 | glycan array binding signal (z-score) [29]: -0.139 | glycan array binding signal (z-score) [30]: -0.141 | glycan array binding signal (z-score) [31]: -0.201 | glycan array binding signal (z-score) [32]: -0.189 | glycan array binding signal (z-score) [33]: -0.162 | glycan array binding signal (z-score) [34]: -0.2 | glycan array binding signal (z-score) [35]: -0.195

— the supplement of paper PMC8728848
